The whole screen tested about 310,000 compounds, of which about 2,200 (0.71%) showed an effect of 50% or more. Effects have a minus sign here. The list shows a part of the results.
What follows are compounds tested against human ether-à-go-go-related gene (hERG) potassium channel (human, UniProt Q12809) (assay: primary screen, population patch clamp on CHO cells stably expressing hERG).
Chain of human ether-à-go-go-related gene (hERG) potassium channel (Q12809 whole entry, looked up): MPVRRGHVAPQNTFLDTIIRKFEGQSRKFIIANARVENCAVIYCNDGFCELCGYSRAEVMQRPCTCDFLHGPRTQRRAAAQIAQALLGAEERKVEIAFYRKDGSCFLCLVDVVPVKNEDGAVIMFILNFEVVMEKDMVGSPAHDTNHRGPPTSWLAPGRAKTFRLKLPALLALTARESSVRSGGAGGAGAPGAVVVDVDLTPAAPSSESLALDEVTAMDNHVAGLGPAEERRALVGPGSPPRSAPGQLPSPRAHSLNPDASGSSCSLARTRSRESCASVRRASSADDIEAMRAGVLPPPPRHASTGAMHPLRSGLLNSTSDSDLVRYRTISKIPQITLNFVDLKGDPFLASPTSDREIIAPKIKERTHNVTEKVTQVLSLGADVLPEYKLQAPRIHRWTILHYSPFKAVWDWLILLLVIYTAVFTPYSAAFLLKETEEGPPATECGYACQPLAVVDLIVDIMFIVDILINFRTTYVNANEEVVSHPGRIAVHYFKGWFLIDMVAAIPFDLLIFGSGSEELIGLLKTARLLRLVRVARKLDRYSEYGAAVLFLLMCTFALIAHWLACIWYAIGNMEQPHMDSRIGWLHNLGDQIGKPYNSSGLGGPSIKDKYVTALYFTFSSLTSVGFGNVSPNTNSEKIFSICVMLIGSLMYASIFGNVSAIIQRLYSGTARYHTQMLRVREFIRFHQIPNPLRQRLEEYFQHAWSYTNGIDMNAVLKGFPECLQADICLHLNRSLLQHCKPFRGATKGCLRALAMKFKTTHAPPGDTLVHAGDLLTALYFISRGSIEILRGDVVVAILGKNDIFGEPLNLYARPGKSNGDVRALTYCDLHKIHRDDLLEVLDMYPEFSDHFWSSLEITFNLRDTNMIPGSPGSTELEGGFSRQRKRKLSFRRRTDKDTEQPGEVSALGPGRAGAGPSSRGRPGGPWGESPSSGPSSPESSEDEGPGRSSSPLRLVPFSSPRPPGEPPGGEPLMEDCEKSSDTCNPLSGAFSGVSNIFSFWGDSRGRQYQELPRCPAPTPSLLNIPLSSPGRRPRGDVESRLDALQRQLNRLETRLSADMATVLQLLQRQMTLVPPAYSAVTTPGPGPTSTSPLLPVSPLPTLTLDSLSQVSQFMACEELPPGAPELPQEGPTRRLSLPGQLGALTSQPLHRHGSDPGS

Structure (SMILES)	hERG current change (%, negative = inhibition) at 1uM [%]
O=C(O)c1ccc(Oc2cccc([N+](=O)[O-])c2)cc1C(=O)O	11
CC(=O)O[C@H]1C(=O)[C@@]2(C)[C@H]([C@H](OC(=O)c3ccccc3)[C@]3(O)C[C@H](OC(=O)[C@H](O)C(NC(=O)c4ccccc4)c4ccccc4)C(C)=C1C3(C)C)[C@]1(OC(C)=O)CO[C@@H]1C[C@@H]2O (stereo partly shown)	12.2
CC(NC(=O)c1ccccc1Cl)C1CC2CCC1C2 (stereo not shown)	10.3
CCCc1nnc(SCc2ccc(OCC)cc2)n1N	12.1
COc1ccc(/C=C/C(=O)O)cc1S(=O)(=O)NCC1CCCO1 (stereo not shown)	0.599
COc1ccc(C)cc1Nc1n[n+](-c2ccccc2)c(-c2ccc(NC(C)=O)cc2)s1.[Cl-]	13.3
O=C(c1cccc(N2CCCC2=O)c1)N1CCN(c2cccc(Cl)c2)CC1	9.22
O=C(Nc1ccc(Cl)cn1)c1ccc2ccccc2n1	13
Cn1c(-c2cc(Br)ccc2O)n[nH]c1=S	19.6
COc1ccc(C(=O)NCC(c2ccco2)N2CCOCC2)cc1OC (stereo not shown)	19.9
CN(C(=O)COC(=O)CSc1ccc(C(N)=O)cc1[N+](=O)[O-])C1CCS(=O)(=O)C1 (stereo not shown)	-11.4
COc1ccc(OC)c(NC(=O)CN2CCC(C(=O)c3ccc(C)cc3)CC2)c1	0.612
Cc1nnc(SCCn2c(N(C)Cc3ccccc3)nc3c2c(=O)n(C)c(=O)n3C)s1	-1.88
O=C(C1CCN(c2ccc(N3CCOCC3)nn2)CC1)N1CCN(c2ccc(F)cc2)CC1	-23.3
Cc1nc2ccccc2nc1OCc1cccc([N+](=O)[O-])c1	1.18
COc1ccc(Cl)cc1S(=O)(=O)N(C)CC(=O)NCCCn1ccnc1	8.8
Cc1ccc(S(=O)(=O)NC(C)(C)CN2CCc3ccccc3C2)cc1	-4.87
CC1CCc2c(sc(NC(=O)Cn3nc(C(=O)O)c4ccccc4c3=O)c2C#N)C1 (stereo not shown)	6.58
C[C@H](NC(=O)OC(C)(C)C)C(=O)NCC1CCC(C(=O)N[C@@H](Cc2ccccc2)C(=O)O)CC1 (stereo partly shown)	15.1
CCn1cc(S(=O)(=O)N2CCCC2)cn1	15.5
COc1ccc(N(Cc2ccccc2)S(=O)(=O)c2ccc(C)cc2)cc1	9.18
Cc1cc(C)n2nc(C(=O)N/N=C/c3cccc(Cl)c3)nc2n1	-0.287

Structure (SMILES)	hERG current change (%, negative = inhibition) at 1uM [%]
CCC1(CC)NC(=O)N(CC(=O)N2CCN(S(=O)(=O)c3cccc(F)c3)CC2)C1=O	6.92
NC(=O)CSc1nnc(COc2ccc3ccccc3c2)o1	17.3
COCCCN1C(=O)C(=O)/C(=C(/O)c2ccc(S(=O)(=O)N3CCCCC3)cc2)C1c1ccc(F)cc1 (stereo not shown)	11.5
COc1ccc(NS(=O)(=O)c2ccc(NS(=O)(=O)c3cccc(C(=O)O)c3)cc2)cc1	4.1
CC1=CC(C)(C)N(C(=O)CN2C(=O)CCC2=O)c2ccc(C)cc21	1.14
O=C(c1ccccc1Cl)c1c(O)c2ccccc2oc1=O	2.85
O=C(COC(=O)c1ccc(Cl)nc1)NCc1cccs1	-5.65
CCN(CC(=O)NCc1ccc(F)cc1)C(=O)C1CC1C (stereo not shown)	5.77
O=C(Nc1ccccc1N1CCOCC1)c1ccc(OCc2cscn2)cc1	10.8
COCCN(Cc1nc2ccccc2c(=O)[nH]1)C(=O)COc1cccc(C(C)=O)c1	-0.788
Cn1c(=O)c2c(SCc3cccnc3)nc(C3CC3)nc2n(C)c1=O	8.33
CC(=O)Nc1ccc(NC(=O)C(C)Oc2ccc(C)nc2[N+](=O)[O-])cc1 (stereo not shown)	7.08
Cc1cc(C)c2nc(N(CCCN(C)C)C(=O)c3ccc(S(=O)(=O)N4CC(C)OC(C)C4)cc3)sc2c1.Cl (stereo not shown)	-5.85
CCNC(=O)C(=O)Nc1cc2c3c(c1)CCC(=O)N3CCC2	20.5
CC(C)c1ccc(NC(=O)CNC(=O)Cn2ccc3ccccc3c2=O)cc1	11.7
COc1ccc(-c2cc(C(=O)N3CCCc4ccccc43)no2)cc1OC	5.3
CC(C)(C)OC(=O)N[C@@H](C(=O)OC(C)(C)C)c1ccc(C(F)(F)F)cc1	10.1
COc1cc(C(=O)Nc2ccc3c(c2)C(=O)N(CCC(=O)O)C3=O)cc(OC)c1OC	3.06
COCCSc1nnc(NC(=O)c2cc(C(=O)OC)cc([N+](=O)[O-])c2)s1	9.56
CC(OC(=O)c1cccs1)C(=O)NCc1ccco1 (stereo not shown)	11.3
O=C(NCCC1=CCCCC1)c1ccc(-n2cncn2)cc1	12.6

— paper PMC4336329 (PLoS ONE, 2015)
